{"source": "the supplement of paper PMC9446081", "note": "Among all 39,000 compounds or so, about 220 (0.56%) showed activity. This is one part of the list.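 Also: static incubation at 37 °C against the wild-type strain, values averaged over two biological replicates.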"}
{"test_system": "Escherichia coli K-12 BW25113", "assay": "relative growth (OD600 normalised to plate interquartile mean) (fraction); higher = less growth inhibition, active = 0.2 or less", "settings": "50 µM; LB; incubation time: overnight (16-24 h)"}
{"smiles": "CNCCCC12CCC(c3ccccc31)c1ccccc12.Cl", "relative growth": "inactive: 0.874"}
{"smiles": "C[C@@H]1CCCCO[C@H](CN(C)C(=O)Nc2ccc(C(F)(F)F)cc2)[C@H](C)CN([C@@H](C)CO)C(=O)c2cc(NS(=O)(=O)c3ccc(Cl)cc3)ccc2O1", "relative growth": "inactive: 1"}
{"smiles": "C[C@@H]1CN([C@H](C)CO)C(=O)c2cc(NS(C)(=O)=O)ccc2O[C@@H](C)CCCCO[C@@H]1CN(C)S(=O)(=O)c1ccccc1", "relative growth": "inactive: 1.02"}
{"smiles": "Cn1c(=O)cc(N2CCC[C@@H](N)C2)n(Cc2ccccc2C#N)c1=O", "relative growth": "inactive: 1"}
{"smiles": "COc1ccc(NC(=O)N(C)C[C@H]2OCCCC[C@@H](C)Oc3ccc(NC(=O)Nc4cccc5ccccc45)cc3C(=O)N([C@H](C)CO)C[C@@H]2C)cc1", "relative growth": "inactive: 0.989"}
{"smiles": "CN1C(=O)c2cc(NC(=O)c3ccc(F)c(F)c3)ccc2OC[C@@H]2O[C@@H](CC(=O)N3CCOCC3)CC[C@H]21", "relative growth": "inactive: 0.97"}
{"smiles": "COCC(=O)N(C)C[C@H]1Oc2cc(C#C[C@@H](C)O)ccc2S(=O)(=O)N([C@H](C)CO)C[C@H]1C", "relative growth": "inactive: 0.985"}
{"smiles": "C[C@H]1CN([C@@H](C)CO)C(=O)c2cccc(NC(=O)c3ccc(-c4nccs4)cc3)c2O[C@H]1CN(C)C(=O)Nc1ccc(C(F)(F)F)cc1", "relative growth": "inactive: 0.984"}
{"smiles": "C[C@@H]1CCCCO[C@H](CN(C)C(=O)Nc2ccc(C(F)(F)F)cc2)[C@@H](C)CN([C@H](C)CO)C(=O)c2cc(N(C)C)ccc2O1", "relative growth": "inactive: 0.969"}
{"smiles": "C[C@@H]1CN([C@@H](C)CO)S(=O)(=O)c2ccc(C#C[C@@H](C)O)cc2O[C@H]1CN(C)C(=O)c1ccccc1", "relative growth": "inactive: 1.02"}
{"smiles": "CO[C@@H]1CN(C)C(=O)c2ccc(NC(=O)Nc3ccccc3F)cc2OC[C@@H](C)N(Cc2ccccc2C(=O)O)C[C@H]1C", "relative growth": "inactive: 1.03"}
{"smiles": "C[C@@H]1CN([C@@H](C)CO)S(=O)(=O)c2ccc(Br)cc2O[C@@H]1CN(C)C(=O)c1ccccn1", "relative growth": "inactive: 0.991"}
{"smiles": "C[C@H]1CN([C@@H](C)CO)C(=O)Cc2cc(NC(=O)Cc3ccccc3)ccc2O[C@@H]1CN(C)S(=O)(=O)c1ccc(F)cc1", "relative growth": "inactive: 1.02"}
{"smiles": "O=C1NC(=O)C2(CCCCC2)N1", "relative growth": "inactive: 0.933"}
{"smiles": "C[C@@H]1CCCCO[C@@H](CN(C)C(=O)c2ccccc2)[C@@H](C)CN([C@@H](C)CO)C(=O)c2cc(NC(=O)Cc3ccccc3)ccc2O1", "relative growth": "inactive: 1.02"}
{"smiles": "C[C@@H]1CN([C@H](C)CO)S(=O)(=O)c2ccc(C#Cc3ccc(F)cc3)cc2O[C@@H]1CN(C)S(=O)(=O)c1cn(C)cn1", "relative growth": "inactive: 1.02"}
{"smiles": "Cc1ccc(S[C@]2(C(=O)NC3CC3)CC(=O)N(Cc3ccccc3C(F)(F)F)[C@@H]2c2ccc(CO)cc2)cc1", "relative growth": "inactive: 1.01"}
